# Laboratory results: article PMC7596085, “The pathogenic S688Y mutation in the ligand-binding domain of the GluN1 subunit regulates the properties of NMDA receptors” (Scientific Reports, 2020)
# Like-named read-outs stand apart in the source and are kept apart here.
# Key:
# [1] = target: hGluN1-4a/hGluN2A (UniProt P35439+Q12879, I267L/M415L/N159S/R212K)
# [2] = target: hGluN1-4a-S688Y/hGluN2A (UniProt P35439+Q12879, I267L/M415L/N159S/R212K/S688Y)
# [3] = target: hGluN1-4a/hGluN2B (UniProt P35439+Q13224, I267L/M415L/N159S/R212K)
# [4] = target: hGluN1-4a-S688Y/hGluN2B (UniProt P35439+Q13224, I267L/M415L/N159S/R212K/S688Y)
SMILES,EC50 [1] [µM],Hill coefficient (h) [1],EC50 [2] [µM],Hill coefficient (h) [2],EC50 [3] [µM],Hill coefficient (h) [3],EC50 [4] [µM],Hill coefficient (h) [4],"Hill coefficient (h) ([3]; steady-state concentration-response for glutamate, HEK293, in the presence of 100 µM glycine)"
N[C@H](CO)C(=O)O [D-serine],1.77 ± 0.19,1.37 ± 0.03,1070 ± 29.7,1.48 ± 0.02,0.47 ± 0.02,1.20 ± 0.03,152 ± 9.67,1.19 ± 0.03,–
N[C@@H](CCC(=O)O)C(=O)O [glutamate],–,–,–,–,–,–,–,–,1.33 ± 0.03
